Measured values from paper PMC4336329 (PLoS ONE, 2015).
Among all 310,000 compounds or so, about 14,000 (4.5%) showed an effect of 50% or more. Effects have a minus sign here. This is one part of the list.

target: human ether-à-go-go-related gene (hERG) potassium channel (human, UniProt Q12809); experiment: primary screen, population patch clamp on CHO cells stably expressing hERG
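Note: peak tail current of the secondary pulse compared with the same well before compound.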

Sequence of human ether-à-go-go-related gene (hERG) potassium channel (Q12809 whole entry, looked up): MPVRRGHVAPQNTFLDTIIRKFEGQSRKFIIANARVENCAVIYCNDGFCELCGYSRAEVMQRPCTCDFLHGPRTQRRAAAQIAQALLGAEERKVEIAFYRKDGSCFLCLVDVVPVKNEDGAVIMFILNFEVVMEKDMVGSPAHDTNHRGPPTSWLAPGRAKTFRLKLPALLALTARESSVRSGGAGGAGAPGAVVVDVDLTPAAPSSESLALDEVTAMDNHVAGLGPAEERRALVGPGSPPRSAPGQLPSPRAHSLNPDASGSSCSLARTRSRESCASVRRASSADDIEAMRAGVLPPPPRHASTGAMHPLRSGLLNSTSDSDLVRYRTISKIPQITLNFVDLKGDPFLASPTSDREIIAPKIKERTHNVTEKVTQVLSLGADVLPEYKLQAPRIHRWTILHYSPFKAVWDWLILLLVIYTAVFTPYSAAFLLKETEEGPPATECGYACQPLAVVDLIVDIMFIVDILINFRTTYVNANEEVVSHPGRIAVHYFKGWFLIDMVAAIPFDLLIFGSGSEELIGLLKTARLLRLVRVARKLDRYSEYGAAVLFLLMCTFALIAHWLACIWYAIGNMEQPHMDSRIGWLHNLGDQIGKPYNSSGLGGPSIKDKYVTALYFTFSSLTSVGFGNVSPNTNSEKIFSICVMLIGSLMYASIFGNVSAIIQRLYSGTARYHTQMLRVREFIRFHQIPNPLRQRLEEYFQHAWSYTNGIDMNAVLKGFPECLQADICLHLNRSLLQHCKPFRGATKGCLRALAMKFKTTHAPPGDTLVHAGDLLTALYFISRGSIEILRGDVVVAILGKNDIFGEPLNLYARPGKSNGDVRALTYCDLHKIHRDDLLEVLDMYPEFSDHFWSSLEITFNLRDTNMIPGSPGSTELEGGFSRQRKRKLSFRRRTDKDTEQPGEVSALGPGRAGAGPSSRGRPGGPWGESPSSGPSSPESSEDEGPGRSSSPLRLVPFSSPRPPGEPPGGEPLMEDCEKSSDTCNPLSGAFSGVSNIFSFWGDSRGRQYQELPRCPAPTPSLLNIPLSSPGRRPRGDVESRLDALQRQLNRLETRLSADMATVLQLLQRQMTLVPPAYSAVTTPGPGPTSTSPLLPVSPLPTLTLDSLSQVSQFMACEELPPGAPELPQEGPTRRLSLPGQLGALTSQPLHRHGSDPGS

| SMILES | hERG current change (%, negative = inhibition) at 10uM [%] |
| --- | --- |
| O=C(NC(N1CCOCC1)C(Cl)(Cl)Cl)c1ccc(F)cc1 (stereo not drawn) | 6.59 |
| Cc1cccc(NC(=O)c2ccc(NS(=O)(=O)c3c(C)noc3C)cc2)c1 | -36.8 |
| COc1ccccc1CCN=C(N)NS(=O)(=O)c1ccccc1F | -7.73 |
| Nc1nonc1-n1nnc(C(=O)N/N=C/c2ccc(Br)cc2)c1CN1CCOCC1 | -21 |
| COc1ccc(C=O)cc1Cn1cnc2c(cnn2C)c1=O | 12.3 |
| Cc1nn(CC(=O)N2CCOCC2)c(C)c1[N+](=O)[O-] | 7.23 |
| Cc1nc2c(Cl)c(C)nn2c2c1CCC2 | 2.55 |
| CC(C(=O)N1CCCCCC1)c1ccc([N+](=O)[O-])cc1 (stereo not drawn) | -25.8 |
| CCCCCCOc1ccc(/C(C)=N/NC2=NCCN2)cc1[N+](=O)[O-] | -81.3 |
| Cc1c(NC(=O)Nc2ccc(Cl)cc2Cl)c(=O)n(-c2ccccc2)n1C | 1.09 |
| CCOC(=O)c1[nH]c2ccccc2c1NC(=O)C1CCCCC1 | 20.9 |
| CCCN(CCC)Cc1cc(=O)oc2cc3c(cc12)CCC3 | -9.37 |
| O=C(Nc1cc(C(F)(F)F)ccc1N1CCOCC1)c1cccnc1Cl | -4.26 |
| COc1cc(C=C2C(=O)c3ccccc3C2=O)ccc1O | 6.54 |
| CCCn1c(C(CO)Nc2nc(C)cs2)nc2ccccc21 (stereo not drawn) | -5.83 |
| CCC(C)[C@H](NC(=O)[C@H](Cc1ccccc1)n1c(=O)[nH]c2ccccc2c1=O)C(=O)N1CCC[C@@H]1C(=O)O (stereo partly drawn) | 12.8 |
| C=CCn1c(-c2cc(-c3ccc(C)cc3)nc3ccccc23)n[nH]c1=S | 9.35 |
| Cc1ccc(/C=N/NC(=O)c2ccccc2OCc2ccc(F)cc2)o1 | -15.4 |
| O=C(NC1CCCCC1)C1CC(O)CN1C(=O)OCc1ccccc1 (stereo not drawn) | 4.62 |

| SMILES | hERG current change (%, negative = inhibition) at 10uM [%] |
| --- | --- |
| Cc1nc2ccc(Br)cc2c(=O)n1-c1ccc([N+](=O)[O-])c(C(F)(F)F)c1 | 6.86 |
| CCCCOC(=O)n1c(SCC(=O)N(CC)CC)nc2ccccc21 | -34.7 |
| Cc1ccc(C)c(S(=O)(=O)N2CCCC2CNC(=O)C(=O)NC2CCCCCC2)c1 (stereo not drawn) | 7.56 |
| Cc1ccc(-c2noc(CSc3nc(N)cc(N)n3)n2)cc1 | -4.24 |
| COc1ccc(C2/C=C\CN(S(=O)(=O)c3ccc(C)cc3)CC(=O)N2Cc2ccc(F)cc2)cc1 (stereo not drawn) | 1 |
| O=C(CN(Cc1ccccc1)C(=O)CCC(=O)Nc1ccccn1)NCc1ccco1 | -9.23 |
| CC(=O)C(Sc1ncnc2sc3c(c12)CCCC3)C(C)=O | 29.3 |
| CSc1ccc(/C=N/NC(=O)C[n+]2ccccc2)cc1.[Cl-] | -1.94 |
| Cc1nc(C)n(C(=O)N(c2ccccc2)c2ccccc2)n1 | 7.63 |
| Cc1oc(-c2ccc(Cl)cc2)nc1CS(=O)CC(=O)NCCCN1CCN(Cc2ccccc2)CC1 (stereo not drawn) | -62.1 |
| COc1ccc(-c2onc(C)c2-c2ccc(C(=O)OC(C)C)o2)c(O)c1 | -6.38 |
| Cc1ccc(C(=O)COC(=O)COc2ccc(C)c(C)c2)cc1 | -4.39 |
| CC1CC(C)CN(CC(=O)N2c3ccccc3CCc3ccccc32)C1.O=C(O)C(=O)O (stereo not drawn) | 3.57 |
| CC(=O)Nc1ccc(NC(=O)C(C)OC(=O)CCc2c[nH]c3ccccc23)cc1 (stereo not drawn) | -1.46 |
| CC(C)Oc1nnnn1-c1ccccc1 | 4.64 |
| CC(C)c1ccc(N(C(=O)c2snc(C(N)=O)c2N)C(C(=O)NC2CCCC2)c2ccncc2)cc1 (stereo not drawn) | 7.77 |
| CC1CCN(CC(=O)NCCc2ccc(F)cc2)CC1.O=C(O)C(=O)O | -3.7 |
| COC(=O)CCC(=O)N1CCCC(C(=O)c2ccc(Cl)cc2C)C1 (stereo not drawn) | -5.75 |
| CC(=O)Nc1ccc(C(=O)N2CCCc3ccccc32)cc1 | -6.92 |

| SMILES | hERG current change (%, negative = inhibition) at 10uM [%] |
| --- | --- |
| NC(=O)c1nn(-c2ccccc2)c(=O)cc1O | -17.8 |
| Cc1ccc(-c2nn(-c3ccccn3)c(=O)c3ccccc23)cc1 | -15.6 |
| COc1cc(/C=N/n2cnnc2)ccc1OCc1ccccc1 | 6.55 |
| Cc1ccc(C(=O)Nc2ccccc2C(=O)NCC2CCCO2)cc1 (stereo not drawn) | -16.1 |
| CC1CCCC(NC(=S)Nc2ccc(SC(F)F)cc2)C1C (stereo not drawn) | -7.43 |
| Cc1ccc(C(=O)NC2CCCCNC2=O)cc1C (stereo not drawn) | 5.77 |
| Cc1nc(/C=C/c2ccccc2)[nH]c(=O)c1-c1ccccc1 | 10.1 |
| COc1cc(OC)c(C(=O)Nc2cc(Cl)ccc2-n2cncn2)cc1OC | -55 |
| NC(=S)N/N=C/c1cccc(/C=N/NC(N)=S)c1 | 11 |
| Cc1cc(C)n2nc(C(=O)OCC(=O)NC3CCCCC3)nc2n1 | 1.56 |
| CCc1noc(C)c1C(=O)N(CCC(C)C)c1c(N)n(Cc2ccccc2)c(=O)[nH]c1=O | -2.55 |
| CCN1CCN(Cc2ccc(NC(=O)c3ccc(C)c(NC(=O)c4cccc(-c5cn[nH]c(=O)c5)c4)c3)cc2C(F)(F)F)CC1.O=C(O)C(F)(F)F | -5.8 |
| CN(C)C(/C=C/Nc1ccc(C#N)cc1)=C(C#N)C#N | -23.2 |
| Cc1cc(C)cc(NC(=O)CSc2nc3ccncc3[nH]2)c1 | 8.99 |
| Cc1cc(Cl)ccc1OCCn1cncn1 | -8.04 |
| CCn1cc(CNC(=O)c2cccc([N+](=O)[O-])c2)cn1 | -11.1 |
| CC(C)Sc1nnc([C@@H](N)Cc2ccccc2)o1.Cl | 5.89 |
| O=c1cc(CO)oc(CN2CCN(Cc3ccccc3)CC2)c1O | 8.06 |
| Cc1nc2ccccc2n1C1CC(=O)N(N(C)C)C1=O (stereo not drawn) | 7.61 |
